# Experimental data taken from PubChem BioAssay AID1745845 (National Center for Advancing Translational Sciences (NCATS), 2022).
# Screen size: about 360,000 compounds; about 2,600 (0.72%) were called active. The shares of active, inactive and inconclusive entries below differ from those in the screen. The call rests on the fitted dose curve; in most records, active means well fitted inhibition curve with a large enough effect; inconclusive means small, poorly fitted or top-dose-only effect; inactive means no such curve, though single readings can be large or run the other way. Potencies beside an inconclusive call are fits to weak or partial responses and may not hold up.
# Assay: Primary qHTS for Inhibitors of ATXN expression; further: nearly all actives have a fitted effect of over 55% in size
# Settings: HEK-293 ATXN2-luciferase reporter, luminescence, 24 h; activity change, negative = inhibition: at 57 µM (top of the series)
# Procedure, shortened: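 qHTS (up to 57 uM final) was run with 24 h compound exposure of reporter cells at 37 °C. Each well was multiplexed: SteadyGlo luminescence measured ATXN2-luciferase expression after a fluorogenic Gly-Phe-AFC viability readout (25 uM final).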
# On the % scale 0 is the no-effect control and ±100 the full control effect; potency means the concentration at half of the fitted maximal effect; tags describe the fitted curve by direction and shape.
Compound,Potency,"activity change, negative = inhibition"
CSCCC(NC(=O)c1ccc(Cl)c([N+](=O)[O-])c1)C(=O)N1CCN(C/C=C/c2ccccc2)CC1 (configuration not stated),"inconclusive: 39.8 µM [inhibitor, single point]",–
C#CCOCCOCCOCCNc1nc(N2CCN(C(=O)CCCCCCCCCCNC(=O)Cn3cc(C[C@@H](C)O)nn3)CC2)nc(N2CCN(C(=O)CCCCCCCCCCNC(=O)Cn3cc(C[C@@H](C)O)nn3)CC2)n1,"inconclusive: 39.8 µM [inhibitor, single point]",–
COc1ccc(-c2nc(CN3CCN(c4ncnc5ccccc45)CC3)c(C)o2)c(OC)c1,"inconclusive: 28.2 µM [inhibitor, partial curve, poor fit]",–
O=C1c2ccccc2C(Nc2ccc(F)c(Cl)c2)N1Cc1ccco1 (configuration not stated),"inconclusive: 31.6 µM [inhibitor, partial curve, poor fit]",–
O=C(COc1ccccc1F)N1N=C(c2cccs2)CC1c1ccco1 (configuration not stated),inactive,–
CCCCNC(=O)NNC(=O)c1cc(C)on1,inactive,–
CCOC(=O)C1=C(Nc2ccccc2)CC(C)(O)C(C(=O)OCC)C1c1ccc(Cl)cc1 (configuration not stated),"inconclusive: 39.8 µM [inhibitor, single point]",–
CC(=O)Nc1cccc(-c2ccnc3c2CC(C)(C(=O)NCc2ccc(F)c(F)c2)O3)c1 (configuration not stated),inactive,–
CC(=O)Nc1cc(-c2ccncc2)cn2c(-c3ccccc3)cnc12,inactive,–
Cc1ccc(NC(=O)C2CCN(c3ncnc4sc(C)c(C)c34)CC2)cc1S(=O)(=O)N(C)C,"inconclusive: 25.1 µM [inhibitor, single point]",–
COC(=O)N/N=C/c1cn(CCCOc2ccc(C)cc2)c2ccccc12,"inconclusive: 35.5 µM [inhibitor, single point]",–
COc1ccc(-c2csc(NCCc3nc4cc(Cl)c(N5CCCCC5)cc4n3CCOCCO)n2)cc1,"inconclusive: 28.2 µM [inhibitor, partial curve, poor fit]",–
COc1cc(NC(=O)c2ccc(N)nc2)cc(C(=O)Nc2cccc(C(F)(F)F)c2)c1,"inconclusive: 39.8 µM [inhibitor, single point]",–
CCOc1ccc(-c2nc(CSCC(=O)NCCc3ccc(OCC)c(OCC)c3)c(C)o2)cc1,active: 20 µM,–
CCOC(=O)C1(CCc2ccccc2)CCN(Cc2cc(OC)c(OC)cc2OC)CC1,"inconclusive: 1.5 µM [inhibitor, partial curve, poor fit]",–
CCCN1CCN(CC2=C(C(=O)OCC)C(c3ccc(OC(C)C)cc3)NC(=O)N2)CC1 (configuration not stated),inactive,–
c1ccc2c(c1)oc1c(Nc3ccc(CN4CCOCC4)cc3)ncnc12,"inconclusive: 37.7 µM [inhibitor, single point]",–
Cc1ccc2nc(N(CCCN(C)C)C(=O)c3ccc(S(=O)(=O)N4CCCCCC4)cc3)sc2c1,"inconclusive: 20 µM [inhibitor, partial curve, poor fit]",–
CC(=O)Oc1ccc(N2C(=O)C3C(C2=O)C(C(=O)c2ccc(Cl)cc2)N2CCCC32)cc1 (configuration not stated),"inconclusive: 39.8 µM [inhibitor, single point]",–
CCCCNC(=O)CSc1nc2ccc(NC(=O)CSc3nnc(COc4ccccc4C)n3C)cc2s1,"inconclusive: 25.1 µM [inhibitor, single point]",–
O=S(=O)([N-]c1nc2ccccc2nc1-[n+]1ccc(Cc2ccccc2)cc1)c1ccc(Br)s1,"inconclusive: 26.7 µM [inhibitor, partial curve, poor fit]",–

Compound,Potency,"activity change, negative = inhibition"
Cc1cccc(NC(=O)c2ccc(NCCc3ccccc3)c([N+](=O)[O-])c2)c1,inactive,–
CCOc1ccc(OCc2ccc(C(=O)NN=Cc3ccc[nH]3)cc2)cc1,"inconclusive: 2.51 µM [inhibitor, full curve, poor fit]",–
COc1ccc(C)cc1NC(=O)C(Sc1nnc(-c2ccncc2)n1-c1ccc(Cl)cc1)c1ccccc1 (configuration not stated),"inconclusive: 37.7 µM [inhibitor, partial curve, poor fit]",–
CC(C)(C)c1ccc(OCCCC(=O)NNC(=O)c2ccccc2O)cc1,"inconclusive: 35.5 µM [inhibitor, single point]",–
Cc1ccc2nc(-c3cccs3)c(Nc3c(C)cccc3C)n2c1,"inconclusive: 39.8 µM [inhibitor, single point]",–
Cc1ccccc1C(=O)N1CC/C(=N\OS(=O)(=O)O)c2ccc(Cl)cc21,inactive,–
C=CC[C@@H](CC(=O)N(CCO)Cc1ccccc1)C(=O)N[C@@H](COC(=O)[C@@H](CC=C)CC(=O)OC(C)(C)C)Cc1c[nH]c2ccccc12,active: 35.5 µM,–
CCc1ccc(CN2CCC(CO)(CC3CCCCO3)CC2)o1 (configuration not stated),inactive,–
Cc1ccc(-n2cccn2)c(CN2CCCC(C(=O)c3ccc4c(c3)OCO4)C2)c1 (configuration not stated),"inconclusive: 39.8 µM [inhibitor, single point]",–
CCOc1ccc(NC(=O)CN(C)C(=O)Cc2ccsc2)cc1OCC,inactive,–
COc1ccccc1NC(=O)CN1CCN(CC(=O)Nc2ccc(Cl)c(C(F)(F)F)c2)CC1,"inconclusive: 39.8 µM [inhibitor, single point]",–
COc1ccc(C2=NN(C(=O)CSc3nc(=O)n4cccc(C)c4n3)C(c3ccc(C)cc3)C2)cc1 (configuration not stated),"inconclusive: 17.8 µM [inhibitor, partial curve, poor fit]",–
Cc1nn(Cc2cccc(F)c2)c(C)c1NC(=O)c1ccc(COc2ccccc2Cl)cc1,active: 3.16 µM,–
COc1cc(Br)cc(/C=N/c2ncn[nH]2)c1O,"inconclusive: 31.6 µM [inhibitor, single point]",–
CCc1cccc(NC(=O)c2cc3c(=O)n(Cc4ccccc4)ccc3nc2C)c1,"inconclusive: 14.1 µM [inhibitor, partial curve, poor fit]",–
C[C@H](NC(=O)c1sccc1OCc1ccc(Cl)cc1)c1ccccc1,active: 21.7 µM,–
COc1ccc(-c2nn3c(C4CCCCC4)nnc3s2)cc1OC,inactive,–
CC(=O)Nc1ccc(NC(=O)COc2c(C)cc(Br)cc2C)cc1,inactive,–
CCN(Cc1ccccc1)C(=O)c1ccc(NC(=O)c2ccc(OC)cc2)cc1,inactive,–
COc1cc2c(cc1NC(=S)NC(=O)/C=C/c1ccco1)oc1ccccc12,"inconclusive: 15.8 µM [inhibitor, partial curve, poor fit]",–
Cc1ccc(NC2=C/C(=N\S(=O)(=O)c3cccs3)c3ccccc3C2=O)c(C)c1,"inconclusive: 7.94 µM [inhibitor, full curve, poor fit]",–

Compound,Potency,"activity change, negative = inhibition"
O=C(COc1ccc(Cl)cc1Cl)NCC1(N2CCOCC2)CCCCC1,"inconclusive: 31.6 µM [inhibitor, single point]",–
O=c1c2c3nc4ccccc4nc3n(-c3ccc4c(c3)OCCO4)c2ncn1C1CCCC1,"inconclusive: 12.6 µM [inhibitor, partial curve]",–
N#C/C(=N\Nc1ccc(Cl)cc1)C(=N)N1CCCCC1,inactive,–
CC(C)CC1C(=O)N(Cc2cn(Cc3ccco3)nn2)CCS(=O)(=O)N1Cc1ccc(-c2ccccc2)cc1 (configuration not stated),"inconclusive: 14.1 µM [inhibitor, partial curve]",–
CC1=C(C(=O)N2CCCCCC2)CC(CC(=O)NC2CCCC2)C(=O)N1Cc1ccc(C(C)(C)C)cc1 (configuration not stated),"inconclusive: 39.8 µM [inhibitor, single point]",–
CC(=O)Nc1ccc(NC(=O)C2CCN(c3ccc(C(F)(F)F)cn3)CC2)cc1,"inconclusive: 20 µM [inhibitor, single point]",–
COc1ccccc1S(=O)Cc1ccc(C(=O)NCCc2ccc(Cl)cc2)o1 (configuration not stated),"inconclusive: 39.8 µM [inhibitor, partial curve, poor fit]",–
COc1ccccc1N1CCN(C(=O)CCC(=O)Nc2nnc(CC(C)C)s2)CC1,inactive,–
COc1ccc(CCNc2nc(-c3cccnc3)nc3ccccc23)cc1OC,"inconclusive: 3.55 µM [inhibitor, partial curve, poor fit]",–
O=C(/C=C/c1cccc([N+](=O)[O-])c1)Nc1cccc(NC(=O)c2ccco2)c1,"inconclusive: 39.8 µM [inhibitor, single point]",–
CC1=NN(C(=O)c2ccc(Cn3nc(C)cc3C)o2)C(O)(C(F)(F)F)C1 (configuration not stated),inactive,–
O=C(O)c1cnc(-c2ccccc2)nc1C(F)(F)F,inactive,–
C=Cn1cc[n+](CC(=O)c2ccc(-c3ccccc3)cc2)c1,"inconclusive: 15.8 µM [inhibitor, partial curve]",–
CCCCN1CC(c2nc3ccccc3n2CCCCOc2cc(C)ccc2C)CC1=O (configuration not stated),"inconclusive: 31.6 µM [inhibitor, single point]",–
COc1ccc(-n2nc(C(=O)NCC(=O)NCc3ccc(F)cc3)c3ccccc3c2=O)cc1OC,"inconclusive: 22.4 µM [inhibitor, single point]",–
Cc1cc(NC(=O)c2ccc(F)cc2F)n(-c2nc3ccccc3[nH]2)n1,"inconclusive: 8.91 µM [inhibitor, full curve]",–
COc1ccc(-c2ccc(CN3C(CC(C)C)C(=O)N(Cc4cn(CCC5OCCCO5)nn4)CCS3(=O)=O)cc2)cc1OC (configuration not stated),"inconclusive: 39.8 µM [inhibitor, single point]",–
Cn1c(NN)nc2sc3c(c2c1=O)CC(C)(C)OC3,"inconclusive: 35.5 µM [inhibitor, single point]",–
COc1ccc(N(Cc2cc3ccccc3[nH]c2=O)C(=O)c2cccc(Cl)c2)cc1,"inconclusive: 39.8 µM [inhibitor, partial curve, poor fit]",–
Cc1[nH]n(S(=O)(=O)Cc2ccccc2)c(=O)c1N=Nc1ccccc1Cl,–,inactive: -30.5% [at 11.3 µM]
